According to PubChem BioAssay AID493208 (National Center for Advancing Translational Sciences (NCATS), 2011):
In all, about 44,000 compounds went through this assay and about 340 (0.77%) were called active. Not shown: some 5% with an inconclusive outcome. Calls follow the shape of the dose curve; as a rule, active = well fitted inhibition curve with a large enough effect; inconclusive = small, poorly fitted or top-dose-only effect; inactive = flat fitted curve, though single readings scatter. The list shows a part of the results.

Assay: Acumen qHTS Assay for Inhibitors of the mTORC1 Signaling Pathway in MEF (Tsc2-/-, p53-/-) Cells: Sytravon;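 also: plate controls were DMSO for no effect and rapamycin for full effect; nearly all actives have a fitted effect of over 50% in size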
Settings: phospho-rpS6 immunofluorescence/PI, 24 h; series mostly up to 38.3 µM; activity change, negative = inhibition: at the top concentration
Procedure, shortened: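 Compounds act on Tsc2-/-, p53-/- fibroblasts carrying an empty vector for 24 h before fixation and dual staining for phospho-S6 and DNA (propidium iodide). Values are percentages of cells above a rapamycin-defined pS6/PI threshold.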

Activity change, negative = inhibition, inactive:
CC1(C)CC(=O)c2cc(-c3nc(-c4ccccc4)cs3)c(=O)[nH]c2C1 -0.549%, Cc1ccc(NC(=O)C2CCN(S(=O)(=O)c3c(C)noc3C)CC2)cc1 0.664%, COc1ccc(Nc2nc(-c3cccc(Cl)c3)c3c(n2)-c2ccccc2OC3)cc1 2.46%, CCOc1ccccc1CNC(=O)Cc1ccc(NC(=O)N2CCCCc3ccccc32)cc1 -4.18%, CCOc1ccc(NC(=O)CSc2nc3ccsc3c(=O)n2C(C)CC)cc1 (configuration not stated) -7.61%, CCOc1ccc(CCNC(=O)CCc2c(C)nc3c(c(C)nn3-c3ccc(C)c(C)c3)c2C)cc1 -0.294%, COc1ccc(-c2noc(N3CCC(C(=O)N4CCN(c5ccccc5OC)CC4)CC3)n2)cc1 11.9%, Cc1cccc2c1-c1sc(C(=O)N3CCN(c4ccccc4)CC3)cc1CO2 -7%, CCCCNS(=O)(=O)c1ccc2nc(-c3cccnc3)cc(C(=O)NCCCOC(C)C)c2c1 -15.8%, Cc1ccc2nc(NCc3ccccc3)c3nnnn3c2c1 1.29%, CCOc1cccc(Nc2nn(-c3ccc(OC(F)(F)F)cc3)nc2C(C)=O)c1 3.06%, CCOC(=O)c1cnc2c(C)c(Cl)ccc2c1NCCc1ccc(OC)c(OC)c1 6.93%, COc1ccccc1CNC(=O)c1cccc(N2CCCS2(=O)=O)c1 2.83%, Cc1ccc(N(CC(=O)NCCc2ccccc2C)S(=O)(=O)N(C)C)cc1 -23.7%, COc1ccccc1CNC(=O)Cn1c(=O)oc2cc(S(=O)(=O)N3CCCC3)ccc21 0.0229%, CCOC(=O)c1ccc(NC(=O)C2CC(=O)NC(=Nc3ccc(C)c(C)c3)S2)cc1 (configuration not stated) -23.5%, Cc1cccc(NC(=O)Nc2ccc(F)cc2)n1 1.96%, CCCCN(C)CCNC(=O)c1ccc(Cn2c(=O)[nH]c3cc(OC)c(OC)cc3c2=O)cc1 2.07%, COc1cc(-c2nc(S(=O)(=O)c3ccc(Br)cc3)c(N3CCOCC3)o2)cc(OC)c1OC 0.61%, COc1ccc(Br)cc1C(=O)Nc1cccc2ccc(C)nc12 6.89%, CCc1nc2nc(C)cc(Nc3cc(Cl)ccc3C)n2n1 10.2%, CCc1ccc(CNC(=O)c2ccc3c(Cl)c4c(nc3c2)CCCC4)cc1 -8.12%, CCOC(=O)c1cnn(-c2ccc(C(=O)Nc3ccc(OC(F)(F)F)cc3)cc2)c1N 0.532%, Cc1cc(N2CCN(c3cccc(C)c3C)CC2)n2cnnc2n1 -2.41%, CC(=O)Nc1ccc(NC(=O)C2CCCN(S(=O)(=O)c3ccc4c(c3)CCCC(=O)N4)C2)cc1 (configuration not stated) -2.16%, COc1ccc(Cl)cc1NC(=O)Cn1ncc2c3ccccc3n(C)c2c1=O -1.64%, Cc1ccc2[nH]c3c(=O)n(CC(=O)NCc4ccco4)ncc3c2c1 2.41%, CCCN(Cc1cccs1)C(=O)Nc1cc(Cl)ccc1C -0.576%, Cc1nn(CC(=O)NCc2ccc(F)cc2)c2ccccc12 -7.96%, O=C(NCc1ccc(Cl)cc1)c1ccc2c(Cl)c3c(nc2c1)CCCC3 -3.01%, Cc1ccc(OCCSc2nnc(-c3cccs3)o2)cc1Cl 0.602%, Cc1ccc(C)c(N2CCN(C(=O)CCC(=O)Nc3ccc4nc(N5CCCCC5)cc(C)c4c3)CC2)c1 0%, CC(=O)Nc1ccc(NC(=O)C2CCN(c3c(NC(C)=O)c(C)nn3-c3ccccc3)CC2)cc1 0%, CCOC(=O)c1ccc2nc(C)cc(Nc3cccc(C(=O)O)c3)c2c1 6.97%, CCOC(=O)c1c(C)n(-c2ccccc2)c2ccc(OC(=O)c3ccccc3NC(=O)C(C)C)cc12 2.53%, CCOC(=O)c1cccc(NC(=O)CCCn2nc(C)c3c(C)n(-c4ccccc4)nc3c2=O)c1 -3.84%, Cn1c(SCC(=O)Nc2ccccc2)nnc1-c1ccccc1 -9.69%, COc1ccc(Cl)cc1-n1nnc(-c2nc(-c3ccccc3)no2)c1C 4.77%, COc1ccc2c(c1)c(=O)c(C(=O)c1ccc(C)c(C)c1)cn2CC(=O)Nc1ccc2c(c1)OCCO2 1.08%, Cc1ccc(NC(=O)CCOc2ccccc2)cc1 -5.14%, COC(=O)c1ccc(NC(=O)CCS(=O)(=O)c2ccc(Br)s2)cc1 -18.6%, Cc1nc(N2CCCC2)ncc1C(=O)NCc1cccc(Cl)c1 2.12%, COc1ccccc1N1CCN(C(=O)Cn2c(=O)n3nc(-c4ccc(C)cc4)nc3c3ccccc32)CC1 3.72%, COc1ccc(NC(=O)c2cccc(N3CCCS3(=O)=O)c2)cc1OC 4.11%, COC(=O)c1ccc(NC(=O)CC2C(=O)N(c3cccc(OC)c3)C(=O)N2Cc2ccco2)cc1 (configuration not stated) -10.8%, COc1ccc(C)cc1NC(=O)CN1c2ccccc2S(=O)(=O)c2ccccc21 -6.47%, COc1ccc(C(=O)CSc2nc(C)cc(C)c2C(=O)Nc2ccccc2C)cc1 -9.01%, Cc1nnc(N2C(=O)c3oc4ccccc4c(=O)c3C2c2ccc(C(C)(C)C)cc2)s1 (configuration not stated) 0.549%, CCc1ccc(NC(=O)CSc2nc3ccccc3nc2Cc2ccc(C)cc2)cc1 -0.989%, COc1cccc(-c2nc(S(=O)(=O)c3ccccc3)c(N3CCCCC3)o2)c1 -15.3%, COCCNC(=O)c1ccc2c(=O)n(CCc3ccccc3)c(SCC(=O)CC(=O)OC)nc2c1 -0.0384%, COc1ccccc1CNC(=O)c1ccc(CS(=O)(=O)c2c(Cl)cccc2Cl)o1 -0.504%, Cc1cccc(OCCSc2nc3ccccc3n2CC(=O)N2CCOCC2)c1 -3.57%, CCc1ccc(CNC(=O)c2c3c(nc4ccccc24)C(=O)N(C2CCCCC2)C3)cc1 -10.4%, CCOC(=O)c1ccc(N2C(=O)c3[nH]nc(-c4ccc(C)cc4)c3C2c2ccc(O)c(OCC)c2)cc1 (configuration not stated) 0.613%, CCCn1c(=O)c2sccc2n2c(CCCC(=O)N3CCN(c4ccccc4OC)CC3)nnc12 -4.41%, CCOC(=O)c1c(C)[nH]c(C)c1S(=O)(=O)N(C)CC(=O)Nc1cc(Cl)ccc1C 1.93%, COc1cc2c(=O)c(C(=O)c3ccc(C)c(C)c3)cn(Cc3ccccc3F)c2cc1OC -17.4%, Cc1ccc2c(=O)cc(C(=O)Nc3sc4c(c3C(=O)NCc3ccco3)CCC4)oc2c1 -0.536%, CC1=C(C(=O)OCc2ccc(C)cc2)C(c2ccccc2F)CC(=O)N1 (configuration not stated) -15.3%, COc1ccccc1NC(=O)CSc1nnc(-c2ccccc2C)o1 -1.72%, O=C(NCc1ccccc1F)C1CCN(c2nnc(-n3cccc3)s2)CC1 1.19%, COc1cc(NC(=O)CCc2c(C)nn(-c3ccc(N4CCOCC4)nn3)c2C)cc(OC)c1OC -7.72%, COc1ccc2c(c1)c(=O)c(C(=O)c1ccccc1)cn2CC(=O)Nc1ccc2c(c1)OCCO2 -9.32%, CSc1ncc(Cl)c(C(=O)Nc2ccc(S(=O)(=O)N3CCC(C)CC3)cc2)n1 -12.8%, COc1cccc(CNC(=O)C2CCN(c3nc4ccc(Cl)cc4[nH]3)CC2)c1 8.6%, CCCCc1cc(=O)oc2cc(C)c3c(C)coc3c12 0%, O=C(NCCn1cc(SCc2ccc(F)cc2)c2ccccc21)c1c(F)cccc1F -10.4%, CCOC(=O)c1cccc(NC(=O)c2ccc3c(c2)nnn3C2CCCC2)c1 -5.76%, Cc1ccc(Cn2c(C(=O)Nc3cccc(Cl)c3)cc3sccc32)cc1 0.705%, Cn1cnc(S(=O)(=O)N2CCCC(C(=O)Nc3ccc(F)cc3Cl)C2)c1 (configuration not stated) 0%, COc1ccc2c(c1)CC(NC(=O)Nc1cc(Cl)ccc1OC)CO2 (configuration not stated) -16.4%, COc1cccc(C(=O)Nc2ccc(Cl)c(-c3nc4ccccc4[nH]3)c2)c1 -32.3%, CSc1nc(C)cc(Nc2c(C)cc(C)cc2C)n1 -3.08%, CCc1ccc(OCCCSc2nc(-c3ccc(C(C)(C)C)cc3)nc3cc(=O)[nH]n23)cc1 -13.4%, COC(=O)c1ccc(NS(=O)(=O)c2ccc(-n3cccn3)cc2)cc1 -10.2%, Cc1ccc(S(=O)(=O)c2cn(C)c3cc(N4CCCCCC4)c(F)cc3c2=O)cc1 -8.39%, Cc1ccccc1NC(=O)c1ccc2nc(Cc3ccccc3)oc2c1 -10.7%, CC(=O)c1ccc(NS(=O)(=O)c2cc(-c3cnc(C4CC4)o3)ccc2C)cc1 -19.5%, O=C(CCSCc1cnn(-c2ccccc2)c1-n1cccc1)NCc1ccccc1F 5.16%, CCOc1ccc(NC(=O)c2cc3c(-c4ccccc4F)nn(C)c3s2)cc1 -2.64%, Cn1c(SCc2ccc(F)cc2)nc2c([nH]c3ccccc32)c1=O 2.88%, Cc1ccc(Cn2c(=O)n(-c3ccccc3)c(=O)c3ccc(C(=O)NCc4ccco4)cc32)cc1 -7.32%, C=Cc1ccc(Cn2c(C(=O)O)c(CNCc3cccs3)c3ccc(C)cc32)cc1 -23.7%, CCOC(=O)c1c(C)oc2nc(C)nc(N3CCN(c4ccc(C(C)=O)cc4)CC3)c12 0.561%, COc1cccc(C(=O)N(Cc2sccc2C)C2CCS(=O)(=O)C2)c1 (configuration not stated) 3.59%, CC(C)(C)OC(=O)N1CCC(c2c(C(=O)NCc3ccc(F)cc3)cnn2-c2ccc(F)cc2)CC1 -4.2%, COc1ccc(OCC2c3cc(OC)c(OC)cc3CCN2C(=O)c2ccc(F)cc2)cc1 (configuration not stated) 0.969%, CCN(CC)CCNC(=O)c1sc2nc3n(c(=O)c2c1C)CCCCC3 -3.66%, COc1ccc(C(=O)Nc2cc(-c3cccc(C)c3)nn2-c2ccccc2)cc1 0%, Cc1ccc(-c2cn3c(n2)sc2cc(C(=O)NCCCN4CCCCC4)ccc23)cc1 7.03%, COc1ccc2cc3cc(C(=O)N4CCN(c5ccc(C(C)=O)cc5)CC4)sc3nc2c1Cl -2.25%, CCOC(=O)c1ccc(NC(=O)c2c(NCc3cccs3)sc3c2CCCCC3)cc1 -21.5%, O=S(=O)(NCc1nc2cccnc2n1Cc1ccc(F)cc1)c1ccc2c(c1)CCCC2 -0.0642%, O=S(=O)(NCCc1csc2nc(-c3ccc(F)cc3)nn12)c1ccc(Br)cc1 -15.6%, Cc1cc(NC(=O)Cn2c(=O)nc(-c3ccccc3F)c3cc(Cl)ccc32)ccc1Br -6.22%, CC1=C(C(=O)Nc2ccccc2C)C(c2ccncc2)n2nc(SCc3ccccc3)nc2N1 (configuration not stated) 0.639%
